Laboratory results as given in article PMC4336329 (PLoS ONE, 2015).
Out of some 310,000 compounds screened, about 2,200 (0.71%) showed an effect of 50% or more. The effect is printed as a negative number. The list shows a part of the results.

These compounds were tested against human ether-à-go-go-related gene (hERG) potassium channel (human, UniProt Q12809) (assay: primary screen, population patch clamp on CHO cells stably expressing hERG).
human ether-à-go-go-related gene (hERG) potassium channel, sequence (Q12809 whole entry, looked up): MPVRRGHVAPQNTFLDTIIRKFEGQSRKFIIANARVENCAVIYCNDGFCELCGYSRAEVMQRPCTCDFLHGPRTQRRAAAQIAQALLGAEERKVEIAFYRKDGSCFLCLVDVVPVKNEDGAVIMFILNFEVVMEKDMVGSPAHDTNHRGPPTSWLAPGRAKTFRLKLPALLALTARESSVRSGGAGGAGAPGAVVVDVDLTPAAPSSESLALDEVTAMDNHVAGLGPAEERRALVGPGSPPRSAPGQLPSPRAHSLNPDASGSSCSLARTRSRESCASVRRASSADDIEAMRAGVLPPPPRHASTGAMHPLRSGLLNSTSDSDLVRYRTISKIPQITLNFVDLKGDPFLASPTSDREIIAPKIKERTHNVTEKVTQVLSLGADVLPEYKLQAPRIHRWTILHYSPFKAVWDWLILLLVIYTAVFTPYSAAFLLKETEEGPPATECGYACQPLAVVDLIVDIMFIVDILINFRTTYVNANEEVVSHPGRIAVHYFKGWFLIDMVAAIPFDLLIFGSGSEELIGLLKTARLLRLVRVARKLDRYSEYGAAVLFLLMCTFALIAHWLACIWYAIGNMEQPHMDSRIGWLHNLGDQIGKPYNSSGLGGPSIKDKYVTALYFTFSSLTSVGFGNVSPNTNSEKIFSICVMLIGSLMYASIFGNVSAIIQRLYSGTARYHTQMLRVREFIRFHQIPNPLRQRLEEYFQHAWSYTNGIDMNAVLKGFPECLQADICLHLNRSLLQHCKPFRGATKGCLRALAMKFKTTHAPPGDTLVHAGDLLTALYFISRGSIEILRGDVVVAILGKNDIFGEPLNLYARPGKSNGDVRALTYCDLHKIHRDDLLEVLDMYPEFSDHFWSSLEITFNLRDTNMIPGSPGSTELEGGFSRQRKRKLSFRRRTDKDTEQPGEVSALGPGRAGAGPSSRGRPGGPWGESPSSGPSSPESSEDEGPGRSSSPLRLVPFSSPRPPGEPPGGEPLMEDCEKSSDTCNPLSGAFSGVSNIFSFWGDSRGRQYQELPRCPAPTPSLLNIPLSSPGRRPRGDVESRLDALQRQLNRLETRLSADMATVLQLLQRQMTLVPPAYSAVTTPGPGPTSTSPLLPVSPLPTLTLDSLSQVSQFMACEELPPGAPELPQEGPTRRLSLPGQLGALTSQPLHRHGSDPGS

Compared with `CC(C(=O)Nc1ccc(OCc2ccccc2)cc1)N1CCCC1` (stereo not shown), `COc1cccc(NC(=S)N2CCN(Cc3ccccc3)CC2)c1` is higher in “hERG current change (%, negative = inhibition) at 1uM” value: 1.5% for the first, 2.73% for the second.

Going from `Cc1ccc(Cn2ccc(O)c(Cc3ccccc3)c2=O)cc1` to `Cc1ccc(/C(N)=N/OC(=O)c2cc(-c3ccccc3)nc3ccccc23)cc1`, the “hERG current change (%, negative = inhibition) at 1uM” value falls from 9% to 8.25%.

Compared with `COc1ccc(CCNC(=O)CCc2nc3sc4c(c3c(=O)[nH]2)CCCC4)cc1`, `CC1CCN(CCCNC(=O)Cn2ncc3c([nH]c4ccccc43)c2=O)CC1` is higher in “hERG current change (%, negative = inhibition) at 1uM” value: 9.73% for the first, 11.9% for the second.

First: O=C(CC12CC3CC(CC(C3)C1)C2)NC(=S)NCc1ccco1
Second: O=C(CN1C(=O)CSCC1=O)Nc1ccc2c(c1)OCO2
The “hERG current change (%, negative = inhibition) at 1uM” value of the first is lower: 6.74% for the first, 13.3% for the second.

First: O=C(/C=C/c1ccc2ccccc2n1)N1CCN(S(=O)(=O)c2ccccc2F)CC1
Second: Cc1cc(NC(=O)c2ccccc2)ccc1NC(=O)c1ccccc1Cl
The “hERG current change (%, negative = inhibition) at 1uM” value of the first is lower: 5.12% for the first, 14.4% for the second.

Compared with `Cc1cccc(N2CCN(S(=O)(=O)c3ccc4[nH]c(=O)c(=O)[nH]c4c3)CC2C)c1` (stereo not shown), `O=C(N/N=C/c1c(O)n(-c2ccccc2)c(=S)[nH]c1=O)c1ccccc1` is higher in “hERG current change (%, negative = inhibition) at 1uM” value: 8.7% for the first, 10.3% for the second.

Compared with `COCCNC(=O)c1cn(C)c2ccc(S(=O)(=O)N(C)C3CCCCC3)cc2c1=O`, `COCCCNC(=O)c1oc2ccc(S(=O)(=O)N(C)C3CCCCC3)cc2c1C` is higher in “hERG current change (%, negative = inhibition) at 1uM” value: -3.35% for the first, 9.2% for the second.

Compared with `CC(=O)C1=C(O)C(=O)N(c2cc(C(C)(C)C)on2)C1c1ccc(Br)cc1` (stereo not shown), `CC(C)(C)c1cc(N/C=C\c2nnnn2-c2ccc(Br)cc2)no1` is higher in “hERG current change (%, negative = inhibition) at 1uM” value: -8.41% for the first, 8.57% for the second.

Compared with `CCOC(=O)C1CCN(C(=O)COc2ccc3c(C)cc(=O)oc3c2)CC1`, `CCOC(=O)N1CCC(NC(=O)CSc2cc(=O)n(CC)c3ccccc23)CC1` is higher in “hERG current change (%, negative = inhibition) at 1uM” value: 2.94% for the first, 8.59% for the second.

First: O=[N+]([O-])c1cccc(-c2nnc(C3CC3)o2)c1
Second: Cc1ccc(-n2c(C)nnc2SCC(=O)NC2CCCC2)cc1
The “hERG current change (%, negative = inhibition) at 1uM” value of the first is higher: 11.1% for the first, 8.16% for the second.

Compared with `CSc1nccc(Oc2cccc(C#N)c2)n1`, `COc1cccc(OCC(=O)Nc2ccccc2C(N)=O)c1` is higher in “hERG current change (%, negative = inhibition) at 1uM” value: 0.976% for the first, 15.2% for the second.

First: CN(C)c1ccc(-c2c(-c3ccc4c(c3)OCO4)noc2-c2ccsc2)cn1
Second: CN(c1cccc(Cl)c1)S(=O)(=O)c1cccc(C(=O)NCc2ccncc2)c1
The “hERG current change (%, negative = inhibition) at 1uM” value of the first is lower: 5.04% for the first, 6.13% for the second.

Going from `CCCCCc1nnc(N)s1` to `CCn1c(Cc2ccccc2)nnc1SCC(=O)Nc1nc(C)cs1`, the “hERG current change (%, negative = inhibition) at 1uM” value rises from 0.903% to 9.82%.

First: Cc1nc(Cc2nnc(SCc3nc(N)nc(Nc4ccccc4C)n3)o2)cs1
Second: Cc1cc(C)n2nc3ccccc3c2n1
The “hERG current change (%, negative = inhibition) at 1uM” value of the first is lower: 6.84% for the first, 14.4% for the second.

Compared with `Cc1cc(C)n2c(SC(C)C(=O)NC3(C#N)CCCCC3)nnc2n1` (stereo not shown), `COc1ccc(NC(=O)CC2CCCCC2)cc1OC` is lower in “hERG current change (%, negative = inhibition) at 1uM” value: 11.7% for the first, 3.22% for the second.

Compared with `CCOc1ccccc1NC(=O)CCCc1ccc(OC)c(C)c1`, `COc1ccccc1NC(=O)CCC(=O)N/N=C(/C)c1ccc(C)cc1` is higher in “hERG current change (%, negative = inhibition) at 1uM” value: 7.44% for the first, 12% for the second.

Going from `CCOc1ccc(C(C)C)cc1S(=O)(=O)N1CCOCC1` to `COc1cc(S(=O)(=O)N2CCCCC2)c(OC)cc1Br`, the “hERG current change (%, negative = inhibition) at 1uM” value falls from 7.34% to 7.03%.

Going from `O=C(Nc1ccccc1)N1CCC(C(=O)N2CCCC(C(F)(F)F)C2)CC1` (stereo not shown) to `O=C(c1cccs1)N(CCN1CCCCC1)CC1CCCN(C2CCCC2)C1` (stereo not shown), the “hERG current change (%, negative = inhibition) at 1uM” value rises from 7.58% to 13.1%.

First: N#CCCN(C(=O)COC(=O)Cc1c[nH]c2ccccc12)c1ccccc1
Second: COC(=O)CC/C(O)=C1\C(=O)CC(C)(C)CC1=NCc1nc2ccccc2[nH]1
The “hERG current change (%, negative = inhibition) at 1uM” value of the first is higher: 11.6% for the first, 5.35% for the second.

First: CCOC(=O)c1c(NC(=O)C2C3C=CC(CC3)C2C(=O)O)sc(C)c1C (stereo not shown)
Second: CC(=O)NCCOC(=O)Nc1cccnc1
The “hERG current change (%, negative = inhibition) at 1uM” value of the first is lower: 8.22% for the first, 10.7% for the second.

Compared with `O=C(Nc1ccc(CN2CCOCC2)cc1)c1ccc(Cl)cc1`, `CC(C)CC(Nc1ncnc2scc(-c3ccccc3)c12)C(=O)O` (stereo not shown) is lower in “hERG current change (%, negative = inhibition) at 1uM” value: 9.22% for the first, 2.98% for the second.

In the case of `CCN(C(=O)CSc1nnc(C(C)N(C)C)n1-c1ccc(F)cc1)C1CCS(=O)(=O)C1` (stereo not shown), the “hERG current change (%, negative = inhibition) at 1uM” value is reported as 11.5%.
